Experimental data published in PubChem BioAssay AID485344 (National Center for Advancing Translational Sciences (NCATS), 2010).
Screen size: about 340,000 compounds; about 6,900 (2%) were called active. No stated cut-off is given here; in the data, active means inhibition above about 30%; inactive means below that, where a call was filed. Only a part is listed here, and it is no random draw. Where no call is shown, the source filed none.

Each compound was assayed against D(2) dopamine receptor (Homo sapiens) (UniProt P14416) (assay: HTS Assay for Allosteric Antagonists of the Human D2 Dopamine Receptor: Primary Screen for Antagonists). Settings: HEK293 TREx D2 cells, calcium flux, dopamine EC80; at 10 µM; stronger effect = higher value.
Outline: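 Calcium mobilization kinetics were recorded at 1 s intervals in tetracycline-induced HEK293 T-REx D2 cells, first for 180 s after compound addition and then 180 s after EC80 dopamine.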
Further: 0% is about no effect.

Chain of UniProt P14416 (P14416 whole entry, looked up): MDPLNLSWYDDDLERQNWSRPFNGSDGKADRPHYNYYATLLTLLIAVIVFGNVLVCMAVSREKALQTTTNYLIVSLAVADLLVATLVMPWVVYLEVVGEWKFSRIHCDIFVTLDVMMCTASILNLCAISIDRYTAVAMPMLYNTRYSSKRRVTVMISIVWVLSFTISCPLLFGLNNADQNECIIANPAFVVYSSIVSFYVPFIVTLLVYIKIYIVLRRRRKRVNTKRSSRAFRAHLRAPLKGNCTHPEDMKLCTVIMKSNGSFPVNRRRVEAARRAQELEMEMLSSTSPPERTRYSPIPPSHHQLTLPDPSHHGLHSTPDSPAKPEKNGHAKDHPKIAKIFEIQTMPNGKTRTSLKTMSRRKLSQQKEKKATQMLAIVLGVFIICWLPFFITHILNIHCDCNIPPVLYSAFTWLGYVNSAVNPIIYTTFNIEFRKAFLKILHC

| SMILES | inhibition |
| --- | --- |
| O=C(CN1C(=O)CSc2ccc(S(=O)(=O)N3CCOCC3)cc21)NCCCN1CCCCC1 | -10.4% |
| Cc1nc(-c2ccc(F)cc2)sc1CCNC(=O)c1cccs1 | 9.67% |
| Cc1ccc(N(CC(=O)N2CCN(c3ccccc3)CC2)S(=O)(=O)c2c(C)noc2C)cc1 | 2.79% |
| COc1ccc(NC(=O)CSc2nc3ccccc3nc2N2CCCCC2)cc1 | -4.85% |
| CCc1ccc(NC(=O)Cn2c(=O)n(-c3ccccc3C)c(=O)c3c2c2cc(OC)ccc2n3C)cc1 | -0.975% |
| Clc1cccc(CN2CCN(c3ncccn3)CC2)c1Cl | active: 60.7% |
| CC(=O)Nc1ccc(C)cc1-c1nc2ccccc2n(CC(=O)c2ccc(C)c(C)c2)c1=O | 23.1% |
| CN1CCN(c2nc3c(S(=O)(=O)c4ccc(Cl)cc4)nnn3c3ccsc23)CC1 | 3.93% |
| COc1ccc(S(=O)(=O)n2nc(C)c(S(=O)(=O)N3CCCCCC3)c2C)cc1C | 16.7% |
| CCOc1ccccc1NS(=O)(=O)c1ccc(N2CCCCS2(=O)=O)cc1 | -8.62% |
| O=C(NCCc1csc(-c2ccc(C(F)(F)F)cc2)n1)C(=O)Nc1ccc(F)c(Cl)c1 | 4.93% |
| CCOC(=O)c1c(N)n(-c2ccc(CC)cc2)c2nc3ccccc3nc12 | 5.81% |
| Cc1ccccc1Nc1nn2c(=O)c3ccc(C(=O)NCc4cccs4)cc3nc2s1 | 3.86% |
| Cc1cc(NS(=O)(=O)c2ccc(NC(=O)COc3ccccc3Br)cc2)no1 | -4.42% |
| Cc1ccc(CNC(=O)CO/N=C/c2ccc(C(C)(C)C)cc2)cc1 | active: 37.9% |
| Cc1ccc(NC(=O)NCCN2CCN(c3ccccc3)CC2)cc1Cl | active: 64.7% |
| Cc1cc(C)cc(NC(=O)CSc2ccc(-c3cccs3)nn2)c1 | -20.3% |
| COc1ccc(C(CNC(=O)c2oc3cc(C)c(C)cc3c2C)N2CCCCC2)cc1 (stereo not drawn) | -0.998% |
| Cc1ccc(Nc2nc(N)nc(CSc3nc4ccccc4s3)n2)cc1 | -0.907% |
| Cc1c2cnn(CC(=O)NCc3ccc(Cl)cc3)c(=O)c2c(C)n1Cc1ccc(F)cc1 | -5.22% |
| O=C(Cc1ccc(F)cc1)NCCc1csc2nc(-c3ccccc3F)nn12 | 11.7% |
| Cc1ccc(S(=O)(=O)C(CNC(=O)C(=O)NCCc2ccc(Cl)cc2)c2ccco2)cc1 (stereo not drawn) | 11.3% |
| CCOc1ccc(CNC(=O)C2CCCN(S(C)(=O)=O)C2)cc1OC (stereo not drawn) | active: 52.1% |
| CCC(C)NC(=O)c1cc2n(n1)CCCN(Cc1ccc(C)cc1)C2=O (stereo not drawn) | 10.2% |

| SMILES | inhibition |
| --- | --- |
| Cc1ccc(N2CCN(C(=O)c3cccn4c(=O)c5ccc(Cl)cc5nc34)CC2C)cc1 (stereo not drawn) | -3.03% |
| CCCC1(C(=O)OC)NC(c2cccc(F)c2)C2C(=O)N(CC)C(=O)C21 (stereo not drawn) | active: 30.8% |
| COc1ccc(CCNc2ncnc3c2cnn3-c2ccc(C)c(Cl)c2)cc1 | 10% |
| Cn1c(=O)c2ccccc2n(Cc2ccccc2Cl)c1=O | active: 34.4% |
| Cc1ccc(NS(=O)(=O)c2ccc3oc(=O)c4ncn(C)c4c3c2)cc1C | -27.9% |
| O=C(CCC1N=C2c3ccccc3N=C(SCc3ccc(Cl)cc3)N2C1=O)NCc1cccs1 (stereo not drawn) | 9.31% |
| O=[N+]([O-])c1ccccc1NCCNS(=O)(=O)c1ccc(Cl)cc1 | active: 33.8% |
| COc1ccc(-c2nn(-c3ccccc3F)cc2CNCCn2nc(C)cc2C)cc1 | active: 37.3% |
| O=C(CCc1ccccc1)NC1CC(=O)N(c2cccc(F)c2)C1 (stereo not drawn) | 4.52% |
| COc1ccccc1C(=O)n1nc(-c2ccccc2)nc1NCc1ccc(Cl)cc1 | -5.04% |
| CCC(=O)N1CCc2cc(S(=O)(=O)NC(CC(C)C)C(=O)Nc3cccc(C)c3C)ccc21 (stereo not drawn) | -0.324% |
| COc1cccc(NC(=O)C2CCC(CNS(=O)(=O)c3csc(C(N)=O)c3)CC2)c1 (stereo not drawn) | 13.4% |
| O=C(CCCN1CCOC(c2ccccc2)C1)c1ccc(F)cc1 (stereo not drawn) | active: 48.7% |
| CC(=O)c1ccc(NC(=O)CSc2nc(=O)n(Cc3ccccn3)c3c2CCC3)cc1 | 17.1% |
| CCc1ccc2oc(-c3cc(NC(=O)c4cc(OC)c(OC)c(OC)c4)ccc3O)nc2c1 | 12.5% |
| CCOCCCNC(=O)c1ccc2c(=O)n(CCc3ccccc3)c(=O)[nH]c2c1 | -8.38% |
| COc1cccc(N2CCN(C(=O)c3cnn(-c4ccccc4Cl)c3C3CCN(C(=O)OC(C)(C)C)CC3)CC2)c1 | -4.1% |
| CCCCc1ccc(NS(=O)(=O)c2cc3c4c(c2)CC(=O)N4CCC3)cc1 | 4.59% |
| C=CCN1CCN(C(=O)c2cc3c(s2)CCC(CC)C3)CC1 (stereo not drawn) | active: 45.8% |
| COc1ccccc1N1CCN(C(=O)C2CCN(S(=O)(=O)c3cn(C)cn3)CC2)CC1 | 16% |
| COc1ccccc1NC(=O)CN1C(=O)C(c2ccc(F)cc2)=NC12CCCCC2 | 17.1% |
| COc1cccc(-c2cn3c(n2)sc2cc(C(=O)NC4CCCCC4)ccc23)c1 | 6% |
| CCc1ccccc1Nc1nn2c(=O)c3ccc(C(=O)NC(C)C)cc3nc2s1 | 10.5% |
| CCN(CCCNC(=O)c1cc2c(=O)n(C)c3ccccc3c2s1)c1ccccc1 | -7.25% |
